The RNAGym collection of RNA variant scans (doi:10.7554/elife.90254)
The source gives no read counts; variants with many changes may rest on few reads.

B1: LINE1-mini (parent)
chain: GGCAGAGCUCAACACAGCGUGGCAAAGUGGCUGUGGCUAGACUGCC

Variants of: B1
Assay: self-cleavage, relative activity (ratio to wild type); higher = more cleavage; in vitro, sequencing; the parent is a self-cleaving ribozyme

Variant | self-cleavage
GGCAGCGCUCAACACAGCGUGGCACAGAGGCUUUGGCUAGACUGCA [A6C A25C U28A G33U C46A] | 0.02
GGCAGCGCUCAACACAGCGUGGCAAUCUGGCUGUGGCUAGAGUGCC [A6C A26U G27C C42G] | 0.06
GGCAGCGCUCAACACUGCGUGGCAAGGUGGCUGUGGCUAGACUGCC [A6C A16U A26G] | 0.38
GGCAUAGCUCAACACAGCGUGGCAAAGUGGCUGUGGCCAGACUGCG [G5U U38C C46G] | 0
GGCAGCGCUCAACCUAGCGUGGCAAAGUGGCUGUGGCUAGACUGCC [A6C A14C C15U] | 0.13
GGCAGCGCUCAACACAGCGUGGCAUAGUGGCAGUGGCUAGACUGCC [A6C A25U U32A] | 0.04
GGCAGCGCUCUACAGAGCGGGGUAAAGUGGCUGUGGCUAGACUGCC [A6C A11U C15G U20G C23U] | 0.02
GGCAGCGCUCUACACAGCGUGGCAAAGAAACUGUGGCUAGACUGCC [A6C A11U U28A G29A G30A] | 0.1
GGCAGCGCUCAGCACAGCGUGGCAAAGUGGCUGUGGCUAGACUGCG [A6C A12G C46G] | 0.01
GGCAUAGCUCAACACAGCGUGGCAAAGUGGCAGUGCCUAGACUGCC [G5U U32A G36C] | 0.05
GGCAGCGCUCGAGACAGCGUGGCAAAGUGGCUGUGGCUAGACUGCC [A6C A11G C13G] | 0.02
GGCAGCGCUCAACUCAGCGUGGCAAAGUGGCUGUAGCUAGGCUGUC [A6C A14U G35A A41G C45U] | 0.05
GGCAUAGCUCAACACAGCGUGGCAAAGAGGCUGUGGCUAAACUGCC [G5U U28A G40A] | 0.06
GGCAGCGCUCAACACAGCGUGGCAACGUGGCUGUGGAUAGACUGCG [A6C A26C C37A C46G] | 0.06
GGCAGCGCUCACAACCGCGUGGCAAAGUUGCUGUGGUUAGCCUGCC [A6C A12C C13A A16C G29U C37U A41C] | 0.04
GGCAGCGCUCAUCACAGCGUGGAAAAGUGCCUGUGGCUAGACUGCC [A6C A12U C23A G30C] | 0.11
GGCAGCGGUCAACACAGAGUGGCACAGUGGCUGUGGCUAGACUGCC [A6C C8G C18A A25C] | 0.01
GGCAGCGCUCACCACAGCGUGGCAAACUAGCUGUGUCUAGACUGCC [A6C A12C G27C G29A G36U] | 0.02
GGCAGCGCUCAACACAGCGUGGCAAUGUGGCUGUGACUAGACUGAC [A6C A26U G36A C45A] | 0.11

Variant | self-cleavage
GGCAGCGCUCCACACAGAGUGGCAAAGUGGCUGUGGCUAAACUGCC [A6C A11C C18A G40A] | 0.03
GGCAGCGAUCAACACAGCGUGCCAAAGUGGCUGUGGCUAGACUGCC [A6C C8A G22C] | 0.29
GGCAGCGCUCAACACAGCGUGGCAAGGUGGCUGUGGCUAGAGGGCC [A6C A26G C42G U43G] | 0.02
GGCAGCGAUAAACACAGCGUGGCAAAGUGGCUGUGGCUAGACUUCC [A6C C8A C10A G44U] | 0.26
GGCAGCGCUCAGCACUGCGUGGCAUACUGGCUUUGGCUAGACUGCC [A6C A12G A16U A25U G27C G33U] | 0.03
GGCAGCGCUCAGCACAGCUUGGCAAAGUGGCUGUGGUUAGCCUGCC [A6C A12G G19U C37U A41C] | 0.01
GGCAGCGCUCAACACAGCGUGGCCAAGUGGCUGUGGCUAGACUGCU [A6C A24C C46U] | 0.25
GGCAGCGCUCAACACAGCGUGGCAAAGUGGCUGUGGCUUGACUACC [A6C A39U G44A] | 0.06
GGCAGCGCUCAGCACAGCGUUGCAAAGUGGCUAUGGCUAGACGGCC [A6C A12G G21U G33A U43G] | 0.01
GGCAGCGCUCAGCACAGCGUGGCAAAGUGGCUGUGGCUAGAAUGCC [A6C A12G C42A] | 0.03
GGCAGCGGUCAACACAGCCUCGCAAAGUGGCUGCGGCUAGACUGCC [A6C C8G G19C G21C U34C] | 0.02
GGCAGCGCUCAACUCAGCGCGGCAAAGUGACUGUGGAUAGACUGCC [A6C A14U U20C G30A C37A] | 0.07
GGCAUAGCUCAACACAGCGCGUCACAGUGGCUGUGGCUAGACUGCC [G5U U20C G22U A25C] | 0.05
GGCAGCGGCCAAUACAGCGAGGCAAAGUGUCUGUGGCUAGACUGCC [A6C C8G U9C C13U U20A G30U] | 0.02
GGCAGCGCUCAACACAGCGUGGCAAUGUACCUGUGGCUAGACUGCC [A6C A26U G29A G30C] | 0.21
GGCAGCGCUCAACACAGCGUGGCAAGGUGUCUGUGGCUAGACUGCC [A6C A26G G30U] | 1.85
GGCAUAGCUCAACACAGCGCGGCAAAGUGGCUGUGGCUAGACUGAC [G5U U20C C45A] | 0.08
GGCAUAGCUCAACACAGCGGGGCAAAGUGGCUGUGGUUAGACUGCC [G5U U20G C37U] | 0.02
GGCAGCGCUCAACACAGCGUGGCAACGUGGCUGUGGCUACACUGCC [A6C A26C G40C] | 0.11

Variant | self-cleavage
GGCAGCGCUCACCACAGCUUGGCAAAGUGGCUGUGUCUAGACUGCC [A6C A12C G19U G36U] | 0.11
GGCAGCGCUCAACGCAGCCUGGCAAAGUGGCUGUGGUUAGACUGCC [A6C A14G G19C C37U] | 0.02
GGCAGCGCUCGACACAGCCUUGCAAAGUGGGUGUGGCUAGACUGCC [A6C A11G G19C G21U C31G] | 0.02
GGCAGCGCUCAACACAGCGUGGCAGAGUGGCUGUAGCUAGCCUGCC [A6C A25G G35A A41C] | 0.13
GGCAUAGCUCAACACAGCGGGGCAAAGUGGCUGUGGCUAGACUUCC [G5U U20G G44U] | 0.02
GGCAUAGCUCAACACAGCGGGGCAAAGUGUCUGUGGAUAGACUGCC [G5U U20G G30U C37A] | 0.02
GGCAGCGCUCAACACAGCGUGGCACAGAGGGUGUGGCUAUACUGCC [A6C A25C U28A C31G G40U] | 0.02
GGCAGCGCUCAACUCAGAGUGGCAAAGUGGCUGUGGCUAGACUGCC [A6C A14U C18A] | 0.02
GGCAGCGCUCUACACAGCGUAGCAAAGUGACUGUGGCUAGACUGCC [A6C A11U G21A G30A] | 0.11
GGCAUAGCUCAACACAGCGUGGCAAAGUGGCGGUGGCUAGACCGCC [G5U U32G U43C] | 0.04
GGCAGCGCUCAACACUGAGUGACAAAGUGGCUGUGGAAAAACUGCC [A6C A16U C18A G22A C37A U38A G40A] | 0.16
GGCAUAGCUCAACACAGCGCGGCAAAGUGACUGUUGCUAUACUGCC [G5U U20C G30A G35U G40U] | 0.01
GGCAGCGCUCUACACACCGUGGCAAAGUGGCUGUGGAAAGACUGCC [A6C A11U G17C C37A U38A] | 0.01
GGCAUAGCUCAACACAGCGUGGCAAAGUGGCGGUGCCUAGACUGCC [G5U U32G G36C] | 0.02
GGCAGCGCUCAACACAGCGUGGCAAAGUGGCUGUGGCUUGACGGCC [A6C A39U U43G] | 0.04
GGCAGCGCUCAACACCGCGUACCAAAGUGGCUGUGGCUAAACUGCC [A6C A16C G21A G22C G40A] | 0.01
GGCAGCGCUCAACACAGCGUGGCACAGUGGCUGUGGUUAGACUGCA [A6C A25C C37U C46A] | 0.07
GGCAGCGCUCAACUCAGCGUGGCAAAGUGGCAGUUGCUAGAAGGCC [A6C A14U U32A G35U C42A U43G] | 0.03
